Assay results as given in ChEMBL document CHEMBL1201862, “PubChem BioAssay data set” (2004).

These compounds were tested on NCI-H322M (assay: NCI anticancer screen, dose series, 48 h).

**Q.** With `CN(CCCNC(=O)c1cn(C)c2c1ccc1cc(Cl)c(Cl)cc12)CCCNC(=O)c1cn(C)c2c1ccc1cc(Cl)c(Cl)cc12` as the compound, how does the GI50 read?
**A.** inactive: 14.3 µM

**Q.** For `CN(C)CC1CCCc2ccccc2C1=O` (stereo not given), which GI50 is on record?
**A.** inactive: 13.6 µM

**Q.** How did the GI50 turn out when `Cc1cc(C)c(C[C@H]2COC(=O)[C@]2(O)Cc2c(C)cc(C)cc2C)c(C)c1` was run?
**A.** inactive: 19.2 µM

**Q.** For `CC1=NN(C(=O)c2ccccc2O)C(=O)/C1=C/c1ccc(O)cc1`, which GI50 is on record?
**A.** inactive: 2.26 µM

**Q.** With `CCC12CCCN(Cc3ccccc3)C1c1c(n(C)c3ccccc13)CC2` (stereo not given) as the compound, how does the GI50 read?
**A.** inactive: > 253 µM

**Q.** `COC(=O)C(Cc1ccc(OC)cc1O)NC(=O)OC(C)(C)C` (stereo not given) was tested. Which GI50 did it give?
**A.** inactive: > 100 µM

**Q.** Which GI50 does the source give for `N#Cc1ccc(-c2ccc(Cl)cc2)n(C2OC(CO)C(O)C(O)C2O)c1=S` (stereo not given) here?
**A.** inactive: > 100 µM

**Q.** For `COc1ccc(/N=N/C(=NNC(=O)c2ccc(C)cc2)c2ccc(N(C)C)cc2)cc1`, which GI50 is on record?
**A.** inactive: > 62.1 µM

**Q.** `COc1ccc2cc(/C=N\NC(=O)Nc3cccc4ccccc34)ccc2c1` was tested. Which GI50 did it give?
**A.** inactive: 33 µM

**Q.** With `O=C(OCc1ccccc1C1CSCSC1)c1cc(C(=O)OCc2ccccc2C2CSCSC2)c(C(=O)OCc2ccccc2C2CSCSC2)cc1C(=O)OCc1ccccc1C1CSCSC1` as the compound, how does the GI50 read?
**A.** inactive: > 100 µM

**Q.** `Cc1cc(NS(=O)(=O)c2ccc(Nc3c4ccccc4nc4ccc(C(=O)Nc5ccc(S(N)(=O)=O)cc5)cc34)cc2)no1` was tested. Which GI50 did it give?
**A.** inactive: > 100 µM

**Q.** With `OC1CN2CCS[C@H]2C(O)C1O` (stereo not given in full) as the compound, how does the GI50 read?
**A.** inactive: > 100 µM

**Q.** With `Nc1onc2c1Cc1c(noc1N)-c1ccccc1-2` as the compound, how does the GI50 read?
**A.** inactive: 76.4 µM

**Q.** How did the GI50 turn out when `Cc1ccc(S(=O)(=O)c2c(O)c3ccccc3n(C)c2=O)cc1` was run?
**A.** inactive: > 100 µM

**Q.** How did the GI50 turn out when `c1ccc(N2N=NC3C4CC(C5c6ccccc6C45)C32)cc1` (stereo not given) was run?
**A.** inactive: 59.7 µM

**Q.** For `COc1cc(C2C(C(=O)O)=C(COC(C)=O)Oc3cc4c(cc32)OCO4)cc(OC)c1OC` (stereo not given), which GI50 is on record?
**A.** inactive: > 100 µM

**Q.** Which GI50 does the source give for `CC(C)N1CCN(c2ccc(OCC3COC(Cn4cncn4)(c4ccc(Cl)cc4Cl)O3)cc2)CC1` (stereo not given) [TERCONAZOLE] here?
**A.** inactive: 14.5 µM

**Q.** Which GI50 does the source give for `COC(=O)CC(C(C(C)=O)C(=O)OCc1ccccc1)N1C(=O)OC(c2ccccc2)C1c1ccccc1` (stereo not given) here?
**A.** inactive: > 100 µM

**Q.** Which GI50 does the source give for `CCOC(=O)c1ccc(N(CCOS(=O)(=O)c2ccc(C)cc2)CCOS(=O)(=O)c2ccc(C)cc2)cc1` here?
**A.** inactive: > 100 µM

**Q.** `CCOC(=O)CCC(NC(=O)c1ccc(OCc2ccc3nc(-c4ccccc4)c(Cl)nc3c2)cc1)C(=O)OCC` (stereo not given) was tested. Which GI50 did it give?
**A.** inactive: > 100 µM

**Q.** Which GI50 does the source give for `O=C1/C(=C/c2cc(O)c(O)c(O)c2)Oc2cc(O)cc(OC3OC(CO)C(O)C(O)C3O)c21` (stereo not given) here?
**A.** inactive: 45.3 µM

**Q.** `CCOC(=O)c1nc2cc(C(F)(F)F)ccc2nc1Nc1ccc(OC)cc1` was tested. Which GI50 did it give?
**A.** inactive: 44.7 µM

**Q.** How did the GI50 turn out when `COc1cc(C2C(C(=O)O)=C(COC(C)=O)Oc3cc4c(cc32)OCO4)cc(OC)c1OC(C)=O` (stereo not given) was run?
**A.** inactive: > 100 µM

**Q.** Which GI50 does the source give for `COc1ccc(-c2oc3c(OC)c(OC)cc(O)c3c(=O)c2OC)cc1` here?
**A.** inactive: > 100 µM

**Q.** For `COC(=O)[C@@H](NC1(c2ccccc2)c2ccccc2-c2ccccc21)[C@H](OC(=O)[C@H]1CCCN1S(=O)(=O)c1ccccc1)C(=O)OC`, which GI50 is on record?
**A.** inactive: > 100 µM

**Q.** For `O=C(NCC(O)CNC(=O)C(F)(F)F)C(F)(F)F`, which GI50 is on record?
**A.** inactive: > 100 µM

**Q.** Which GI50 does the source give for `NC(Cn1ccc(=O)c(O)c1)C(=O)O` (stereo not given) [MIMOSINE] here?
**A.** inactive: > 100 µM

**Q.** With `N#Cc1ccccc1NC(=O)/C(=N\NC(=O)c1ccncc1)C(c1cnc2ccc([N+](=O)[O-])cc2n1)[N+](=O)[O-]` (stereo not given) as the compound, how does the GI50 read?
**A.** inactive: > 100 µM

**Q.** For `CCOC(=O)c1ccc(C(=O)C(C(C)=O)C(=O)OC(C)(C)C)[nH]1` (stereo not given), which GI50 is on record?
**A.** inactive: > 100 µM

**Q.** How did the GI50 turn out when `COc1ccc2c(c1)CC[C@@H]1[C@@H]2CC[C@]2(C)C(=O)/C(=C/c3ccc(N(C)C)cc3)C[C@@H]12` was run?
**A.** inactive: 61.5 µM

**Q.** `Cc1ccc(Cl)c2[nH]c(-c3ccccc3)cc(=O)c12` was tested. Which GI50 did it give?
**A.** inactive: 28.7 µM

**Q.** With `CN(CCNC(=O)c1cn(C)c2c1ccc1cc(Cl)c(Cl)cc12)CCNC(=O)c1cn(C)c2c1ccc1cc(Cl)c(Cl)cc12` as the compound, how does the GI50 read?
**A.** inactive: 1.85 µM

**Q.** `COc1ncnc2c1cnn2Cc1cn(CCCCO)nn1` was tested. Which GI50 did it give?
**A.** inactive: > 100 µM

**Q.** With `C=C1C(=O)OC2/C=C(\COC(C)=O)CCC(OC(C)=O)C3=CC(OC3=O)C12` (stereo not given) as the compound, how does the GI50 read?
**A.** inactive: 13.2 µM

**Q.** How did the GI50 turn out when `CNC(=O)CNC(=O)C(Cc1ccc(NC(=O)CCCCC(C)=O)cc1)NC(=O)C(CCC(=O)OCc1ccccc1)NC(=O)OC(C)(C)C` (stereo not given) was run?
**A.** inactive: > 100 µM

**Q.** With `CC(C)[C@H]1NC(=O)[C@H]2N=C(O[C@@H]2C)[C@@H]2CCCN2C(=O)[C@H](Cc2ccccc2)NC(=O)[C@@H]2CSC(=N2)[C@@H](Cc2ccccc2)NC(=O)[C@@H]2CSC1=N2` as the compound, how does the GI50 read?
**A.** inactive: > 100 µM

**Q.** For `CCCCn1c(O)nc2c(N)ncnc21`, which GI50 is on record?
**A.** inactive: > 100 µM

**Q.** How did the GI50 turn out when `O=[N+]([O-])c1cc(Cc2cc([N+](=O)[O-])c3cccnc3c2O)c(O)c2ncccc12` was run?
**A.** inactive: 8.3 µM

**Q.** How did the GI50 turn out when `CC(C)OC(=O)C1=C(O)c2ccccc2S(=O)(=O)N1` was run?
**A.** inactive: > 100 µM

**Q.** `CN(C)/N=N/c1cccc(C(N)=O)c1` was tested. Which GI50 did it give?
**A.** inactive: > 100 µM

**Q.** With `Cc1cc(=O)nc(S(=O)(=O)NC(=S)Nc2ccc(Cl)cc2)[nH]1` as the compound, how does the GI50 read?
**A.** inactive: > 100 µM

**Q.** With `CCO[C@H]1C[C@@H](c2ccccc2)[C@]2(C)C[C@H](C(=O)OC)ON2O1` as the compound, how does the GI50 read?
**A.** inactive: > 100 µM

**Q.** How did the GI50 turn out when `C/C(=N/c1[nH]c(=O)cc2c1C(=O)CC2)N(C)C` was run?
**A.** inactive: > 200 µM

**Q.** For `CC(=O)N/C(=C\c1ccc(/C=C(\NC(C)=O)c2nc3cc(Cl)ccc3[nH]2)cc1)c1nc2ccccc2[nH]1`, which GI50 is on record?
**A.** inactive: > 100 µM

**Q.** Which GI50 does the source give for `O=C(Nc1ccc(Cl)c(Cl)c1)C(=O)C(C1OC(=O)c2ccccc21)[N+](=O)[O-]` (stereo not given) here?
**A.** inactive: > 100 µM

**Q.** For `Cc1cc(S(=O)(=O)Nc2nnc3c(Cl)cc(C(F)(F)F)cn23)c(S)cc1Cl`, which GI50 is on record?
**A.** inactive: 40.5 µM

**Q.** How did the GI50 turn out when `Cc1ccc(NC(=O)CCC(CC(=O)C(C)(C)C)=NNC(=O)C(=O)NN)cc1C` was run?
**A.** inactive: > 100 µM

**Q.** For `COC1OC(CO)C(O)C(OC(C)=O)C1NC(=O)N(CCCl)N=O` (stereo not given), which GI50 is on record?
**A.** inactive: > 100 µM

**Q.** How did the GI50 turn out when `CN(CCc1ccccn1)c1ccc2c(c1)C(=O)c1ccccc1-2` was run?
**A.** inactive: 45.9 µM

**Q.** How did the GI50 turn out when `CNC1(C(=O)O)CC1` was run?
**A.** inactive: > 100 µM

**Q.** For `O=c1[nH]nc(-c2ccccc2)n1-c1cccc([N+](=O)[O-])c1`, which GI50 is on record?
**A.** inactive: > 100 µM

**Q.** Which GI50 does the source give for `CCCCCCCCCCCCCCCC(=O)OCC1OC(OC)C2NP(=O)(N(CCCl)CCCl)OC1C2O` (stereo not given) here?
**A.** inactive: 40.5 µM

**Q.** With `COc1ccc(-c2c(C(C)=O)c(C)n(C3OC(CO)C(O)C(O)C3O)c(=S)c2C#N)cc1` (stereo not given) as the compound, how does the GI50 read?
**A.** inactive: > 100 µM

**Q.** How did the GI50 turn out when `COC(=O)C1OC2(CCCC3CC32)O[C@H]1C(=O)OC` (stereo not given in full) was run?
**A.** inactive: 76.6 µM

**Q.** Which GI50 does the source give for `Cc1ccc(S(=O)(=O)N2C[C@](O)(c3ccccc3)[C@H]2C)cc1` here?
**A.** inactive: > 100 µM

**Q.** `O=C1C(c2ccccc2)=C(c2ccccc2)C(c2ccc(-c3ccc(C4=C(c5ccccc5)C(=O)C(c5ccccc5)=C4c4ccccc4)cc3)cc2)=C1c1ccccc1` was tested. Which GI50 did it give?
**A.** inactive: > 100 µM

**Q.** `O=C1C[C@@H]2[C@@H](CCC23CC3)N1` was tested. Which GI50 did it give?
**A.** inactive: > 100 µM

**Q.** Which GI50 does the source give for `Cc1cc2ccccc2c[n+]1CC(O)C[n+]1cc2ccccc2cc1C` here?
**A.** inactive: > 100 µM

**Q.** How did the GI50 turn out when `CC(C)C(=O)/C=C/S/C=C/C(=O)C(C)C` was run?
**A.** inactive: 33.1 µM

**Q.** `COc1c(C(=O)/C(=N/Nc2ccc(C(=O)O)cc2)C(C)=O)c(O)cc2occc12` was tested. Which GI50 did it give?
**A.** inactive: > 100 µM

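Grown in 96-well plates, cells were treated for 48 hours with each compound at five concentrations. Insufficient inhibition: endpoint recorded as highest concentration tested. GI50 marks 50% less growth.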 Calls of active or inactive are those of the source. No stated cut-off is given here; in the data, active = GI50 up to about 1.1 µM and inactive = higher.
